# In ChEMBL document CHEMBL4888484, “Replenishing the malaria drug discovery pipeline: Screening and hit evaluation of the MMV Hit Generation Library 1 (HGL1) against asexual blood stage Plasmodium falciparum ,using a nano luciferase reporter read-out” (2022):
# The whole screen tested about 150,000 compounds, of which about 540 (0.36%) showed an effect of 50% or more. Some of the results follow.
# Test system: Plasmodium falciparum
# Test: Primary screen in NF54 nanoGlo assay, in single point, at 2uM, 72h; a lower Z score goes with more inhibition
# Assay type: functional, Erythrocyte
# Conditions: timepoint 72 hour
SMILES,% Inhibition,Z score
COc1ccc(C(=O)N2C[C@H](O)[C@@H](N3CCCC3)C2)cc1F,-6%,1.22
Cc1ccc(F)cc1C(=O)N1C[C@@H]2c3ccccc3OC[C@]2(CO)C1,-8%,0.94
CC(=O)Nc1ccc([C@]2(O)COc3ccccc3O2)cc1,5%,-0.96
Cc1cccc(OC[C@@H](O)CN2CCN(c3nc(C)ns3)CC2)c1,8%,-0.73
Cc1ccc(-c2noc(-c3ccc(=O)n(Cc4cc(C)ccc4C)c3)n2)cc1,-1%,0.17
O=C(NCC[C@H]1CCc2ccccc2N1)c1cnc2n1CCCCC2,-6%,0.99
COC[C@H]1CC[C@H]1NC(=O)COc1ccc(CO)cc1,-6%,0.85
COc1ccccc1NC(=O)CN1C(=O)NC2(CCCCCCC2)C1=O,-16%,2.07
COc1ccc2c(c1)CCc1c-2n[nH]c1-c1ccc(C(=O)NCCC(c2ccccc2)c2ccccc2)cc1,-9%,1.07
O=C(O)c1cccc(C(=O)N(Cc2ccccc2)CC2CCOCC2)n1,-20%,1.65
CCC1(CC)CCN(C(=O)C2C3CCCCC32)CC1 (stereo not drawn),-14%,2.87
COc1ccc(C(=O)N2CC(Cn3cncn3)C2)cc1F,-18%,2.32
CC(C)(C)C(=O)N1CCN(c2cc(N3CCCC3)ncn2)CC1,-11%,1.28
COc1nccc2c(NC(=O)N3CC[C@@](O)(C(N)=O)C3)cccc12,0%,0.02
O=C1NCCCCCCN(S(=O)(=O)c2cccnc2)[C@H]2C[C@H](c3nc(-c4cccnc4)no3)C[C@@H]12,-6%,0.74
COc1cc(C(=O)NCCNC(=O)c2nc(-c3ccc(C(F)(F)F)cc3)no2)cc(OC)c1OC,-13%,1.68
CCCc1nnc(N2CCC(N(C)CCN(C)C)CC2)s1,-9%,1.42
Cc1nc(N)ccc1-c1cccc(C(=O)N(C)C2CCN(C)CC2)c1,-2%,0.23
CN(C)Cc1cccc(CN(C)Cc2cnc(N3CCCC3)s2)c1,-18%,3.34
Cc1ccc2c(c1)n(Cc1cccc(Cl)c1)c(=O)c1nc(C(=O)Nc3c(C)cccc3C)nn12,-9%,1.03
Cc1c(C(=O)Nc2nnc(C)n2C2CC2)nnn1CCOc1ccc(F)cc1,-1%,0.09

SMILES,% Inhibition,Z score
C[C@H]1CN(C(=O)c2ncoc2-c2ccc3c(c2)OCCO3)CCN1,-15%,1.95
CC(C)c1cccc(-c2cc(NCc3ccccn3)nc3[nH]ccc23)n1,-5%,0.74
CCN1C(=O)[C@H](CC(=O)NCc2ccc(Cl)cc2)N(CC)C1=O,-3%,0.6
COc1ccccc1-n1c(=O)n(CC(=O)NC2CCCCC2)c(=O)c2c(C)cc(C)nc21,3%,-0.43
Cc1nn(C)c(C)c1NC(C)C1CCCN(C(=O)OC(C)(C)C)C1 (stereo not drawn),0%,0.03
Cc1nn(-c2ccc(Cl)cc2)c(NC(=O)c2ccccc2F)c(-c2ccccc2)c1=O,-4%,0.49
Cc1ccc(-n2cnc3cc(C(=O)N4CCc5ccccc54)ccc32)c(C)c1,0%,0.06
CCc1cc(N2CCN(CCc3ccccc3)C(=O)C2)ncn1,-15%,2
C[C@H](Nc1cnn(CCN(C)C)c1)c1ccc2c(c1)OCCO2,-10%,1.84
Cc1cnn(CC(=O)Nc2c(F)cccc2Oc2ccccc2)c1,-11%,1.56
Cc1cccc(C)c1OCCN(C)S(=O)(=O)c1c(C)noc1C,-5%,0.45
Cc1nc(N2CCCC2)nc(C)c1NS(=O)(=O)Cc1ccccc1,-14%,2.16
O=C(CN1c2ccccc2-c2ccccc2S1(=O)=O)NC1CCCC1,3%,-0.53
C[C@@H](C(=O)NCCc1nnc2ccccn12)c1ccc(C[C@@H]2CCCC2=O)cc1,-9%,1.22
CC1CN(CC2CCN(c3ccc(S(N)(=O)=O)cn3)CC2)CC(C)O1 (stereo not drawn),-4%,0.75
C=CC[C@H](C)C(=O)N1CCC(n2cnc3ccc(F)cc32)CC1,-4%,0.75
Fc1ccc(Oc2ncccc2CNc2ncccc2Cl)cc1F,-8%,0.99
COc1ccc(CNC(C)C2CCCO2)cn1 (stereo not drawn),-13%,1.71
Brc1ccc(Nc2ccc3ccccc3n2)nc1,6%,-1.22
Cc1ccccc1C(C)CC(=O)N1CCCC(N2CCNCC2=O)C1 (stereo not drawn),1%,-0.15
Cc1ccsc1CNC(=O)c1ccnc2c(C(N)=O)cnn12,-2%,0.31

SMILES,% Inhibition,Z score
Cc1cc(NC(=O)C2CCN(Cc3nc4ccccc4[nH]3)CC2)ccc1Br,-10%,1.47
Cc1cc(C)c2nc(-n3cncn3)c(C)cc2c1,-12%,1.44
O=C(Nc1cccc(Cl)c1)C1=NCCN1,-14%,1.68
COc1ccc(-c2c(-c3ccc(Cl)cc3)[nH]c3c2c(=O)[nH]c(=O)n3C)cc1,-5%,0.54
CC(C)(C)OC(=O)NCC1CCN(C(=O)c2snc(O)c2Cl)CC1,-7%,0.89
CCn1ncc(CN(C)C(=O)CCn2nc(C)c(Cl)c2C)c1C,11%,-1.4
Cc1cc(C)cc(N2C(=O)C3N=NN(c4cccc(C(F)(F)F)c4)C3C2=O)c1 (stereo not drawn),5%,-0.61
O=C(CCc1nccs1)N1CCCC[C@@H]1Cc1ccc(F)cc1,-17%,3.23
O=C(COC(=O)c1ccccn1)Nc1ccc2c(c1)CCC2,-1%,0.18
CCn1nc(C(=O)NCc2ccncc2)c2c1CC[C@H](O)C2,1%,-0.27
c1c[nH]c(C2CCN(c3ncnc4[nH]ccc34)CC2)n1,-9%,1.08
COc1ccc(C[C@H](CO)CNc2nc3ccccc3o2)cc1O,-4%,0.81
CC(=O)Nc1c(-c2ccccn2)nsc1C(=O)NC1CCCC1,6%,-0.6
COc1ncccc1[C@H]1CC(=O)NCc2nc(N3CCCC3)sc21,-5%,1
C[C@](O)(CNS(=O)(=O)Cc1ccccc1)c1ccco1,-6%,1.11
CN(CC1CC(O)C1)C(=O)N[C@@H](Cc1ccccc1)c1ccccc1 (stereo partly drawn),-3%,0.46
CN1CCCC(NC(=O)N2CCCC2C2CCC2)C1 (stereo not drawn),-1%,0.08
N#Cc1ccccc1CN1C(=O)CN(C2CCCC2)C1=O,5%,-0.5
CCc1onc(C)c1C(=O)NCCC(=O)Nc1cccnc1,2%,-0.15
CC1(C)CN(C(=O)[C@@H]2Cc3ccccc3N2)CCO1,-2%,0.32
CCN1CCC[C@H](NC(=O)c2cccc(Oc3nccs3)c2)C1,-9%,1.14

SMILES,% Inhibition,Z score
Cc1nn(C)c(N)c1C(=O)N[C@H]1COCC1(C)C,-3%,0.66
Cc1csc(NC(=O)CCc2nc3ccccc3c(=O)[nH]2)n1,-5%,1.08
CCC=C(C)C(=O)N[C@@H](CNC(=O)OC(C)(C)C)C1CC1,0%,-0.02
CCCC(=O)N1CCC[C@H]1C(=O)N1CCn2cncc2C1,-5%,0.86
CO[C@@H](CS(=O)(=O)Nc1c(C#N)c(C)c2ccccn12)C1CC1,-4%,0.52
Cc1ccc(Nc2nc(NC[C@H]3CCCO3)nc3[nH]ncc23)cc1C,-3%,0.47
Cc1ccc(NC(=O)[C@H](C)NS(=O)(=O)c2ccc3c(c2)CCN3C(=O)N2CCCC2)nc1,-6%,0.63
COc1cccc(OC)c1C(=O)Nc1ccc(Oc2ccc(Br)c3ccccc23)c(Cl)c1,2%,-0.2
O=C(CC1CCCCC1)Nc1nc[nH]n1,14%,-1.87
CCNc1cc(CNC(=O)Nc2cc3n(n2)CCN(C)C3)ccn1,-13%,2.61
CS(=O)(=O)N1CCC(C(=O)N2CCC(=C3CC3)CC2)CC1,-10%,1.16
Cc1cccnc1C[C@H](C)NC(=O)Cn1nnnc1N,-2%,0.31
CC(NC(=O)NC1CCCCC1OCc1ccccc1)c1nc[nH]n1 (stereo not drawn),-8%,0.72
C[C@@H](O)[C@@H]1NC(=O)[C@@H]2C[C@H](NC(=O)c3ccc4ccccc4c3)CN2C1=O,1%,-0.12
Cc1ccc(C2(CN3CCCC3)CCN(C(=O)c3cnc(C)cn3)CC2)nc1,-4%,0.79
CN(Cc1ccoc1)C(=O)c1cc(F)c[nH]1,-7%,0.63
CC(C)c1ccc(NC(=O)C2CCN(C(=O)c3ccc4c(c3)nnn4C3CCCC3)CC2)cc1,-5%,0.94
CC(C)NC(=O)OC[C@H]1CCCCN1Cc1cnn2ccccc12,2%,-0.31
CC1CC(N)CCN1C(=O)CCN1c2ccccc2CCC1C (stereo not drawn),-3%,0.36
COc1ccc(-c2n[nH]c3nc(-c4ccc(F)cc4)cc(C(=O)NCc4ccc(F)cc4)c23)cc1,-23%,2.09
C[C@H](NC(=O)N1CCN(S(=O)(=O)c2ccccc2Cl)CC1)c1ccc2c(c1)OCCO2,14%,-1.18
